Test results reported in publication PMC11840927, “Frataxin Traps Low Abundance Quaternary Structure to Stimulate Human Fe–S Cluster Biosynthesis” (Biochemistry, 2025).

Assays:
[1] = biological target: T1, E. coli cysteine desulfurase IscS with a His-tag (E. coli, UniProt P0A6B7 1-404, PLP cofactor); experiment: native MS; complexes formed before the exchange reaction: SDAec with ISCU2 (1:3) or ISCU2 and FXN (1:3:3), IscS with IscU (1:3), 30 min, room temperature, EMR Orbitrap; conditions: both partners purified
T1 construct: IscS, E. coli cysteine desulfurase; also called tagged IscS; His-tagged IscS
T1 sequence (looked up): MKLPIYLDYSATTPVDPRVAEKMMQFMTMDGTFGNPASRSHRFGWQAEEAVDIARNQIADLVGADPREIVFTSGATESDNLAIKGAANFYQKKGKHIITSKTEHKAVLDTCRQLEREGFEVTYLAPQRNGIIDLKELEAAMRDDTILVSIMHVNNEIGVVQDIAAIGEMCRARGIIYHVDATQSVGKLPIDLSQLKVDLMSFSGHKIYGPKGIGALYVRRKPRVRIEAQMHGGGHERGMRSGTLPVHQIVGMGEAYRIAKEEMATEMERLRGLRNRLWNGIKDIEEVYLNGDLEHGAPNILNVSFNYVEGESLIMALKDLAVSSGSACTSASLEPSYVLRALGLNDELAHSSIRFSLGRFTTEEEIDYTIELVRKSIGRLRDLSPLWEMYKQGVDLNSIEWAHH

[2] = biological target: T2, E. coli cysteine desulfurase IscS without a His-tag (E. coli, UniProt P0A6B7 1-404, PLP cofactor); experiment: as above; conditions: both partners purified
T2 construct: IscS, E. coli cysteine desulfurase; also called untagged IscS
T2 sequence (looked up): T1 sequence (looked up)

B1: E. coli IscU (natural protein, UniProt P0ACD4 1-128, looked up)
chain: MAYSEKVIDHYENPRNVGSFDNNDENVGSGMVGAPACGDVMKLQIKVNDEGIIEDARFKTYGCGSAIASSSLVTEWVKGKSLDEAQAIKNTDIAEELELPPVKIHCSILAEDAIKAAIADYKSKREAK
notes: IscU, E. coli Fe–S cluster scaffold protein
B1: binds [1]; binds [2].
